The full ranking holds about 33,000 sequences; the median of “E-score (-0.5 to 0.5)” is about -0.053, and the highest 2% start at about 0.37. Some of the results follow.
target: Hap1 (UniProt P0CE41); assay: PBM E-score (8-mer binding enrichment) (E-score (-0.5 to 0.5)); higher = stronger / more preferred TF binding; most listed sequences are background and not binding sites; settings: protein concentration: 200 nM; construct: GST-DNA-binding domain
Method in brief: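 Universal all-10-mer Agilent arrays, fresh or stripped once, were converted to double-stranded form by primer extension. GST-tagged yeast transcription factors from PURExpress in vitro transcription/translation, full-length or DNA-binding domain only, were applied at about 100-200 nM and detected with fluorescent anti-GST. After masliner normalisation, the Universal PBM Analysis Suite scored each ungapped eight-base word together with its reverse complement by E-score.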

Sequence of UniProt P0CE41 (P0CE41 whole entry, the tested form may be a part): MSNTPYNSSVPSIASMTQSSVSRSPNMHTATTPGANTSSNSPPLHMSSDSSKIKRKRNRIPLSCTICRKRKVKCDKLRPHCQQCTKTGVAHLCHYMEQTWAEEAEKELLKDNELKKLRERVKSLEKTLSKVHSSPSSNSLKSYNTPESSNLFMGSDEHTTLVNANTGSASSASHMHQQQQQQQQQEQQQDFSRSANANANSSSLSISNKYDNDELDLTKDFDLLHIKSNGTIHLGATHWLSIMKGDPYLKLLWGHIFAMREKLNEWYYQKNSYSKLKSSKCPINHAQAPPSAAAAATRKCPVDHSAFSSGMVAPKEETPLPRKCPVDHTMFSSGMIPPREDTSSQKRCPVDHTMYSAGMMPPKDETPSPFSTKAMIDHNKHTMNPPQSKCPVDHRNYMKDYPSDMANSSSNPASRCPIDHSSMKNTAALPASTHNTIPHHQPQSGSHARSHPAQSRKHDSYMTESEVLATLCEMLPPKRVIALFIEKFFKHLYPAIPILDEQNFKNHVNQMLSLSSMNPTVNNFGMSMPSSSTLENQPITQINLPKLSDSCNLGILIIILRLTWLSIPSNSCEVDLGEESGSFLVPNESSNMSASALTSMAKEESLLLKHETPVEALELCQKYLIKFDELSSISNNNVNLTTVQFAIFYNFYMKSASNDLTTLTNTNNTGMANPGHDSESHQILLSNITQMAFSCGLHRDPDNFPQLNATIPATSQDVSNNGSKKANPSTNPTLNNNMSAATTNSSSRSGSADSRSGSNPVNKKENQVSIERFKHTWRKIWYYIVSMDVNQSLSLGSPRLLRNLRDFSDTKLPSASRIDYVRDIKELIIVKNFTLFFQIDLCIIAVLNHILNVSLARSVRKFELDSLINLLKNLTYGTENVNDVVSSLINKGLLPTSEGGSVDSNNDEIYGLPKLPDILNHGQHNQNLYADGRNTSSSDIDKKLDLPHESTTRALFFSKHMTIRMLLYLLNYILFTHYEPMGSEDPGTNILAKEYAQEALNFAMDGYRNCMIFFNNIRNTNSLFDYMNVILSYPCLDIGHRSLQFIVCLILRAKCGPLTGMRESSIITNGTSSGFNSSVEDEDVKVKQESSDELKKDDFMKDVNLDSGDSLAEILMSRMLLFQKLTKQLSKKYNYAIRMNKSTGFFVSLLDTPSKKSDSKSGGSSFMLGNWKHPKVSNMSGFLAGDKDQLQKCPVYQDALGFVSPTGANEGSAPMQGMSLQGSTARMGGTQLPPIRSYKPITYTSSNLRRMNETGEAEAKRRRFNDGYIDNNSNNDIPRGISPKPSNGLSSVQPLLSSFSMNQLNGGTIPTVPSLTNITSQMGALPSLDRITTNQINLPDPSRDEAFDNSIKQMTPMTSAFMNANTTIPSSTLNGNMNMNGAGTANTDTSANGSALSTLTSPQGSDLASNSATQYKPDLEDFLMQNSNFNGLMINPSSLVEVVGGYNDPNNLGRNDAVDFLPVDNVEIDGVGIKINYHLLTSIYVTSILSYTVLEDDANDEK

Sequence	PBM E-score
ATTTTCGG	0.396
CCGGGACG	0.199
CATCTCCA	-0.0795
GGCCTCCC	0.0309
ACTCCCAT	-0.176
AGAATTCA	-0.143
CTTCTGGA	0.078
AGGGCCAG	-0.251
TGCTTCCA	-0.292
ACTGCAGT	-0.246
GCGATGCC	-0.0826
GTGAGCAA	-0.15
CCTAGGAC	-0.237
GAGTCAGC	-0.09
CCCCTCAC	-0.193
GCTTCTGA	-0.074
AGACATGA	-0.269
GGAACTTA	0.222
AAGAGCGT	-0.0104
ATTCACAC	-0.0838
GCTACGCA	0.0599
AAGATAGG	-0.243
AGCATATG	-0.278
ATTGGGGC	-0.121
AAGGCCCG	0.196

Sequence	PBM E-score
ACAAATCG	0.0601
ATCAACAG	-0.00366
AGATAGAA	-0.151
TAAACCCA	-0.0432
CTTATCGA	0.0359
GGTATATA	-0.0426
AGCTCCAT	-0.146
ACACTATA	-0.139
GTCTATAA	-0.11
CATGAGGC	0.0271
CTCCGTGC	0.276
ACAGGGAC	-0.0505
AACAACAT	-0.16
GCGCTTAC	0.119
CACCCGCA	0.175
CACAGAGC	-0.197
AGATTTTG	-0.178
GACATAAC	0.295
AGTGTAGG	-0.195
ACTCAAGT	-0.186
GGGCTACA	-0.0843
TGCGGACA	0.22
AACCTATG	-0.273
CGGTAAGC	0.168
AGCTTAAA	-0.0455

Sequence	PBM E-score
CCGCAAGC	0.0614
GTCGCGAC	0.244
CTTAGCAA	-0.13
CACGTGCA	-0.232
ACTGATTC	-0.0611
GAAATTCA	-0.0161
AGAACATC	-0.132
AATGTGCG	0.0725
ACAAAGGC	-0.118
AACGTGCC	-0.0752
AGCTTCTG	0.0241
GGCACTGA	-0.0786
CTAACTTC	-0.0933
GGACCTCA	-0.0128
GCTTCAAA	-0.0797
ATGAGGGC	0.0612
AAGGTTAG	-0.172
CGATCAGC	0.0843
GGCCAGTA	0.0694
AGATCCCG	0.283
CAGGGCCC	-0.0861
CGTATTTA	0.129
AGGCTACA	-0.293
ACTCTCAA	-0.38
CCTTACCA	-0.312

Sequence	PBM E-score
CCAGCACC	-0.163
ACTTAAAG	-0.0509
AATGTTAT	-0.124
ACCACCCC	0.0325
CACCTCTA	-0.141
CTGTTAAC	0.176
CAACGCCC	0.0355
TAAACAAA	-0.045
CGGCTTGA	0.13
CGCTGCTC	-0.134
CCTTAATC	0.0701
AAATTCGC	0.0775
CTACAATC	-0.0799
CCGACAGG	0.256
CAATACAG	-0.0781
ATCGCGTG	0.0249
CTTTGGAA	-0.128
CGGATATA	0.482
ACGACAGT	-0.206
AATACTCA	-0.0687
TACGCGCA	0.0988
CGAACATC	0.174
AGTCTGGC	-0.291
GTCCCAGA	-0.0784
CCCAAAAG	-0.0474

Sequence	PBM E-score
AAGGCTGG	-0.37
CTCACGAC	-0.226
AGTGGAGA	-0.0684
ATAGTGGC	-0.0684
ATAGGGGG	-0.116
AGCCTTAG	-0.249
ACATTATG	-0.0456
AGGTGTGC	-0.185
GATTGAAA	0.136
CCCGTGCA	0.0668
CCTCAGAG	-0.261
CTATATGC	-0.0879
CGACGCTA	-0.0783
AATTTGAA	0.235
AGCCGAGG	0.294
GATCTAGC	-0.0586
CCGATAAG	0.431
ACATGTTA	-0.0591
CTAGTATC	0.0581
AACATACT	-0.118
TAACACCA	-0.158
CATAAGCA	-0.166
GCTTATAA	0.0766
ACCGCAGA	0.00744
TCTCGAGA	0.0304

Sequence	PBM E-score
AGGTCTAT	-0.236
AGATCAAT	-0.0196
CTTAACGC	0.0373
ACCCCAGG	-0.274
CTGGAACC	-0.168
AACCAGCT	-0.24
AGTCAGAT	-0.212
CGTTGACC	-0.0894
GAAGCATC	-0.0716
CCAATGGA	-0.0152
CAGCTGGC	0.0946
ACGACGAC	-0.0734
GAACATCA	-0.0898
GCTCGTCC	0.004
ATGTGTAA	-0.115
CAGTGCGC	-0.0688
AGGCTATG	-0.266
CGTGATTA	0.016
GAGTTAAC	0.118
CCAGGCGC	-0.0378
CAACGCCA	-0.154
TTCCCAAA	-0.139
CATGCTGA	-0.235
ATCCGGCC	0.412
CTTGACAC	-0.266

Sequence	PBM E-score
GCCCTATA	-0.022
TAAAAAGA	-0.0263
ACGTGCGC	-0.0439
AAGGAACG	-0.0459
ATCATACG	0.0229
AGCCGCCG	0.182
AACACCTG	-0.0827
ATACTGAA	-0.176
ATACGAGC	-0.0187
CATACTGG	0.104
GTTCTGTA	-0.174
ACTTCAGG	-0.00179
AGAACATA	0.234
CAGGCTCG	0.0756
TCACGTGA	-0.0813
GTCCCAAA	-0.13
CTAACTAC	-0.0641
GCGACTCA	-0.0964
GGAACAAA	0.0674
GAAAATTA	0.025
CATTTGAC	-0.0393
CCGACGGA	0.386

Reference: the supplement of paper PMC3334620
